Measured values published in patent publication US12478592B2, “Dosage regime with esketamine for treating neuropsychiatric or neurological conditions” (priority 2019, dated 2025).

Test system: bone marrow cells of Crl:CD(SD) rats
Test: Mammalian erythrocyte micronucleus test, bone marrow

## CN[C@]1(c2ccccc2Cl)CCCCC1=O [esketamine, (2S)-2-(2-Chlorophenyl)-2-(methylamino) cyclohexanone]
Male or female rats, oral gavage
  induction of micronucleated polychromatic erythrocytes or bone marrow cell toxicity: has not shown any evidence
Male rats, 37.5 mg/kg/day and 75 mg/kg/day, p<0.05, within historical control range, not considered biologically relevant
  proportion of polychromatic erythrocytes vs vehicle control: Statistically significant decreases
